Data reported in PubChem BioAssay (Tox21).
“And” between values parts separate entries of the source, which are not always exact repeats. Identical values can stand only once. The inconclusive results got no clear call from the source; some entries with a clear call stand among them for comparison. Potencies of inconclusive entries are doubtful fits and often do not repeat. The source made the active and inactive calls. The call rests on the fitted dose curve; in most records, active means well fitted inhibition curve with a large enough effect in the repeat runs; inconclusive means weak or mixed curves; inactive means no such curve, though single readings can be large or run the other way.

Tests used:
[1] = molecular target: Cytochrome P450 2C19 (Homo sapiens) (UniProt P33261); assay: Cytochrome P450 Family 2 Subfamily C Member 19 (CYP2C19) small molecule antagonists: luciferase reporter qHTS assay (AID 1671197); settings: P450-Glo CYP2C19 enzyme, luciferin luminescence, 1 h; series mostly up to 115 µM; further: nearly all actives have a fitted effect of over 65% in size
In short: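 Inhibition of CYP2C19 was scored from loss of luminescence in a P450-Glo proluciferin substrate assay, NADPH-started and run 1 h at 37C, with ketoconazole as positive control.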

[2] = molecular target: Cytochrome P450 1A2 (Homo sapiens) (UniProt P05177); assay: Cytochrome P450 Family 1 Subfamily A Member 2 (CYP1A2) small molecule antagonists: luciferase reporter qHTS assay (AID 1671199); settings: P450-Glo CYP1A2 enzyme, luciferin luminescence, 1 h; series mostly up to 115 µM; further: nearly all actives have a fitted effect of over 50% in size
In short: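 Human CYP1A2 activity measured with a P450-Glo proluciferin substrate; compounds in DMSO preincubated 10 min at room temperature with enzyme-substrate mix, then NADPH regeneration system added for 1 h. Luciferin detection reagent, 20 min, luminescence read.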

[3] = molecular target: Cytochrome P450 3A4 (Homo sapiens) (UniProt P08684); assay: Cytochrome P450 Family 3 Subfamily A Member 4 (CYP3A4) small molecule antagonists: luciferase reporter qHTS assay (AID 1671201); settings: P450-Glo CYP3A4 enzyme, luciferin luminescence, 1 h; series mostly up to 115 µM; further: nearly all actives have a fitted effect of over 50% in size
In short: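 Relative luminescence units after 20 min with luciferin detection reagent served as read-out. Beforehand, CYP3A4 turned over a proluciferin substrate for 1 h at room temperature with NADPH regeneration, following 10 min compound preincubation.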

[4] = molecular target: Cytochrome P450 2C9 (Homo sapiens) (UniProt P11712); assay: Cytochrome P450 Family 2 Subfamily C Member 9 (CYP2C9) small molecule antagonists: luciferase reporter qHTS assay (AID 1671198); settings: P450-Glo CYP2C9 enzyme assay, luciferin luminescence; series mostly up to 115 µM; further: nearly all actives have a fitted effect of over 50% in size
In short: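 P450-Glo proluciferin substrate with CYP2C9 enzyme; 10 min RT preincubation, then NADPH regeneration 1 h at 37C; luciferin detection reagent 20 min RT, luminescence in relative luminescence units.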
Potency means the concentration at half of the fitted maximal effect; tags describe the fitted curve by direction and shape.

UniProt P08684, sequence (P08684 whole entry, looked up): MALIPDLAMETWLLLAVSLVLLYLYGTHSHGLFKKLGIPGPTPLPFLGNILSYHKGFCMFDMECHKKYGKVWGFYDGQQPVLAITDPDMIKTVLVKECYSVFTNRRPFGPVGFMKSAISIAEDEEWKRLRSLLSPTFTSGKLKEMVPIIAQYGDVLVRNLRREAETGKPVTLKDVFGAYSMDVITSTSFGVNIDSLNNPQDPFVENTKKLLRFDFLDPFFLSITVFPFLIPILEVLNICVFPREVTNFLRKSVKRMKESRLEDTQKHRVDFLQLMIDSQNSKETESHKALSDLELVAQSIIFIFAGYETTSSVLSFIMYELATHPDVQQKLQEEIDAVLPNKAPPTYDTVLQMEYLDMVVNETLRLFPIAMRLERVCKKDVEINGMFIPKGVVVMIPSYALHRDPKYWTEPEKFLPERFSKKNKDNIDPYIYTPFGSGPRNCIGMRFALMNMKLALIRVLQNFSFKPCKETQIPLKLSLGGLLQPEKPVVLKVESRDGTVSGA
UniProt P11712, sequence (P11712 whole entry, looked up): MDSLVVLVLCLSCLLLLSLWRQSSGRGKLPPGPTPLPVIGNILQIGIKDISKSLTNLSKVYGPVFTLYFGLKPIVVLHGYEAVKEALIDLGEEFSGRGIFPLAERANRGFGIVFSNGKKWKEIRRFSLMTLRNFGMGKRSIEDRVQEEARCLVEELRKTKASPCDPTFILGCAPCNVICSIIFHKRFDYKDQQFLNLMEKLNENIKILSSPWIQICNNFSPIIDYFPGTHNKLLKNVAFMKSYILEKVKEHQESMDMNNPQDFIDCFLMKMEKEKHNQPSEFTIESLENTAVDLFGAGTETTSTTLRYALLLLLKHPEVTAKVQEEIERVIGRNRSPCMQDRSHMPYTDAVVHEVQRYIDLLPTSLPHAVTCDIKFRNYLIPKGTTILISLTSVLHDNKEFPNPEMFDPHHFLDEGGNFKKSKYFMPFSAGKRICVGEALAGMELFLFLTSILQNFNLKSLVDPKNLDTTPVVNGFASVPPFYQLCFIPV
UniProt P33261, sequence (P33261 whole entry, looked up): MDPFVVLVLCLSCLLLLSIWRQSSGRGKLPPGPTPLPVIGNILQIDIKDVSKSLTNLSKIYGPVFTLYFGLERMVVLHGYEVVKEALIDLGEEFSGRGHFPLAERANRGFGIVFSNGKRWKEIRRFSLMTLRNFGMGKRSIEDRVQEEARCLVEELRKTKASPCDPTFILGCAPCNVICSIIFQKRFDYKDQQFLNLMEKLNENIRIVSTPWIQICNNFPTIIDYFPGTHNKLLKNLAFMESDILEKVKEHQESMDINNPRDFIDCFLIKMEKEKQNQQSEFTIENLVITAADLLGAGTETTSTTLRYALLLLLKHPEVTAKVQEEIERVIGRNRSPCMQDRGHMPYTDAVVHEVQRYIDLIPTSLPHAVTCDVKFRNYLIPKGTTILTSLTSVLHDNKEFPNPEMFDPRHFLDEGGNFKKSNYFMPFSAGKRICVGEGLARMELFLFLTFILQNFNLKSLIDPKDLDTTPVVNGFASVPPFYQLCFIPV
UniProt P05177, sequence (P05177 whole entry, looked up): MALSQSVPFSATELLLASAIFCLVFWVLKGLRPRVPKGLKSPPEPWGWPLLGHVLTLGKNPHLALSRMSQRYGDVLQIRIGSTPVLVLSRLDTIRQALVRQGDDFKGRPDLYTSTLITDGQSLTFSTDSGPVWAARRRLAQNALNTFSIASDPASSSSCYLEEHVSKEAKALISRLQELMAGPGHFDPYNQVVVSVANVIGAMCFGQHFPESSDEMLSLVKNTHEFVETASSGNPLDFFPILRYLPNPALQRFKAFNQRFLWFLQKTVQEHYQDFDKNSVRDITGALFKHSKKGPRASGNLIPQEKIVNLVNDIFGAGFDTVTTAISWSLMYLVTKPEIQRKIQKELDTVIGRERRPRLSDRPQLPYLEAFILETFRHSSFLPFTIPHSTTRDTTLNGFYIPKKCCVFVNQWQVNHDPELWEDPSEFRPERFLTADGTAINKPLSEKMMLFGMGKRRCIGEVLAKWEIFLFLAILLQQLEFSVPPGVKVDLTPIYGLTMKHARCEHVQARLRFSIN

## CCCCC(CC)COCC1CO1 (stereo unspecified)
[1]
  Potency: inactive
[2]
  Potency: inconclusive: 39.9 µM [inhibitor, partial curve]

## COc1cc(C=O)ccc1O
[1]
  Potency: inconclusive: 89.4 µM [inhibitor, single point]
[3]
  Potency: inactive

## CCC(=O)OC/C=C/c1ccccc1
[1]
  Potency: active: 35.6 µM and active: 71 µM
[4]
  Potency: active: 39.9 µM and inconclusive: 31.7 µM [inhibitor, partial curve]
[3]
  Potency: inconclusive: 39.9 µM [inhibitor, partial curve]

## CC1=CC2C3CC(C=C3C)C2C1 (stereo unspecified)
[4]
  Potency: inconclusive: 35.6 µM [inhibitor, full curve]

## N#Cc1ccc(C(=O)O)cc1
[1]
  Potency: inconclusive: 89.4 µM [inhibitor, single point]
[2]
  Potency: inconclusive: 63.3 µM [inhibitor]

## CC(C)NCC(O)c1ccc(NS(C)(=O)=O)cc1 (stereo unspecified)
[4]
  Potency: inactive

## O=C1CCCCCCCCCCCN1
[1]
  Potency: inconclusive: 22.4 µM [inhibitor, partial curve] and inconclusive: 89.4 µM [inhibitor, single point]
[4]
  Potency: inconclusive: 89.2 µM [inhibitor] and inconclusive: 39.9 µM [inhibitor, partial curve]
[2]
  Potency: inconclusive: 56.4 µM [inhibitor, partial curve, poor fit]

## C1CCN(CN2CCCCC2)CC1
[4]
  Potency: inactive

## CC(C)(C)c1cc(CCC(=O)OCC(COC(=O)CCc2cc(C(C)(C)C)c(O)c(C(C)(C)C)c2)(COC(=O)CCc2cc(C(C)(C)C)c(O)c(C(C)(C)C)c2)COC(=O)CCc2cc(C(C)(C)C)c(O)c(C(C)(C)C)c2)cc(C(C)(C)C)c1O
[4]
  Potency: inconclusive: 30.1 µM [inhibitor, partial curve, poor fit]
